Some of the results follow.
Each sequence was assayed on PfSIP2 AP2 domain 1 (GST-tagged) (assay: gcPBM binding intensity (ln(normalized median fluorescence intensity)); higher = stronger DNA binding).
Procedure, shortened: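 An Agilent 4 × 180k array of primer-extended double-stranded 36-bp intergenic genomic probes, with negative controls, was incubated for 1 h with GST-tagged P. falciparum DNA-binding domains expressed in E. coli. Alexa488 anti-GST antibody detected bound protein, scanned at 488 nm. Binding intensity is the highest Masliner-normalised natural-log median intensity across replicate spots of either probe orientation.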

| Sequence | gcPBM binding intensity (ln) |
| --- | --- |
| ATTCTTAAAAAATAAGTGCAAAATAATTAAATAAAT | 8.44 |
| AGAATGGTTTATAAAGGTACGTAATTTTTAATTTTA [XGTACX_site383] | 6.74 |
| AAACGTATTCTATAAAGTACATTATTATAGTAGACC [XGTACX_site8068] | 7.2 |
| TATTGAATAAAATGCACACGCATGCGTTATTTATTA [CACACA_site3479] | 6.9 |
| TAAAAAAATTATATTTGTACATATTAATATAGCCTT [XGTACX_site4833] | 6.81 |
| TAGTATTAAATATATACACACATATATACCTATAGA [CACACA_site5219] | 6.82 |
| TGAAAAGATAAAAAAAGTACACACACACATATATAT [XGTACX_site6504] | 7.56 |
| AAAAATTCAATAGGACGTACTAAAACATTCATTAAT [XGTACX_site1712] | 6.87 |
| TTTAGTGTTATAAAAAGTACATAATAATTCCTTTTC [XGTACX_site3208] | 7.05 |
| TTATAAATAATGAGAAACATTAAATTTAATCATAAA [CACACA_negctrl_site523] | 6.74 |
| TACTATATATATATATATATATATATATATATTTAT [GTGCAC_negctrl_site593] | 7.9 |
| AATATGTACAGACATACACACATATTTATATTTATA [CACACA_site6694] | 7.04 |
| TTATATAAAGAATGTACACACAGAAATGCACAGACA [CACACA_site5288] | 8.26 |
| GCTTATATTAATAAGGTGCTTTTTATTTCGTGTGTA [GTGCAC_site9649] | 7.78 |
| TCATAGTATAAACACACACACACACCCATATATATA [CACACA_site8512] | 7.41 |
| AATTTTCAATAGTATACACACAATTCTATAAATATA [CACACA_site6650] | 7.04 |
| AATGAGAATTTTATTACACACTTTAATATATTTTCA [CACACA_site784] | 6.75 |
| CACGTGAAAATACAAGCATGCAAGCTTTTTTTTTCT [TGCATGCA_site642] | 6.53 |
| AATTTTTTTATAGCACGTACAAAAATACAAAATACA [XGTACX_site1569] | 7.34 |
| ATCATTTATATTTTATGTACATATATAATTATATTT [XGTACX_site2129] | 7.29 |
| AAAAAAATAAATAAATGTACACATATATATATATAT [XGTACX_site4350] | 9.23 |
| TAGAGGAATATAATATGTACATAATATAATGTATAT [XGTACX_site2838] | 7.07 |
| TTATGTCTAATGAAATGTACATGAATAAATTAAAGT [XGTACX_site8138] | 7.59 |

| Sequence | gcPBM binding intensity (ln) |
| --- | --- |
| AGTGAAATTTTAGTCACACAGTTTTATCTTTAAGAA [CACACA_site5202] | 6.54 |
| AATTATATAAGCCACGCATGTGTGCATAAAAATACA [TGCATGCA_site114] | 7.79 |
| AGCCCAAAAAAGTAGACATGCAAAAACTTTACAACT [TGCATGCA_site550] | 7.09 |
| AAAAAAAAAAAGAAGGGTACATATTATATATAATAT [XGTACX_site6204] | 7.09 |
| TATATATAAACATAATGTACATATAATAAGTAATAT [XGTACX_site497] | 7.22 |
| TCTTGATCTTATATATATCTACAATATTTTATACAT [TGCATGCA_negctrl_site569] | 7.12 |
| ATTACAAATATAATATGTACTTAAATATAATTAAAA [XGTACX_site7038] | 6.89 |
| ATTACTAAAACAAAATGTACATATGATTTAAGAAAA [XGTACX_site5992] | 6.83 |
| TTTTTTTTTTAGAGTACACACTTTTTTACATTTATG [CACACA_site5990] | 7.08 |
| ATATATATATATATTGCACACATATAAATATATATA [CACACA_site8167] | 9.22 |
| GAAAAATTTAATTATTGTACGTTTCATCTATATTTA [XGTACX_site414] | 6.91 |
| TTTTTGTTTTTTTTGTGTACTTATCAAATATATATA [XGTACX_site7273] | 7.49 |
| CAAAAAAAATTATACACACACACACCCATATATATA [CACACA_site1044] | 7.54 |
| AAGAAAATTAACCCATGTACTTATGTAGATAGCAAG [XGTACX_site1049] | 7.25 |
| TACTATATATTATATAGTACATAAGATATACAACAT [XGTACX_site2929] | 7.17 |
| TAAAACTTAATATAAACACACAAAAATTAATAAATA [CACACA_site4370] | 6.81 |
| CAATATTATAGATATACACACATAATGTGTAAAAAC [CACACA_site6631] | 6.8 |
| ATAAATAGTATTATATGTACACATAATATTTATAAA [XGTACX_site4751] | 7.28 |
| AAAAATGGTGTTAACACACACATATATATATATATA [CACACA_site571] | 9.76 |
| TTTCTCTCTTATAAAATACACACGAACAATCATATT [CACACA_site509] | 7.11 |
| TATAATTATGATGATAGTACGTATGAGTTCAAAACA [XGTACX_site4211] | 6.97 |
| CACATTTTTTAAATATTTTTCTACTCCATAATGTTT [CACACA_negctrl_site557] | 7.1 |

Source: the supplement of paper PMC11417369
